This note sets out measurements from PubChem BioAssay AID1918956 (Molecular Pharmacology Branch, DTP, NCI, 2023).

Certain results were filed several times, with different values. They are shown here; other results are not. The source may hold further records. Values that stand side by side repeat one measurement (runs, samples, wells, individuals or studies). Brackets with × say how often a value occurs here.

The test relates to OVCAR-5 complex spheroids, viability. Kind of test: Anticancer human tumor OVCAR-5 cell line growth inhibition.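 Also: spheroids exposed to agents for seven days; 100% = DMSO vehicle control wells viability.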 To be noted: stronger effect = lower value. The source says: Multicellular complex tumor spheroid response to LSD1 Inhibitor Iadademstat in combination with a variety of drugs and investigational agents in selected tumor cell lines
The current study was undertaken to assess response to LSD1 inhibitors in combination with standard-of-care drugs and investigational agents in solid tumor complex spheroid models as well as in the K-562 leukemia. Complex spheroids include a stromal component modeled by human endothelial cells (HUVEC) and fibroblasts modeled by human mesenchymal stem cells (MSCs). The concentration ranges selected for each drug and investigational agent were based upon clinically achievable concentrations if the clinical Cmax of the agent was known.
Compounds. The drugs and investigational agents used in this study are listed on Table 1. All of the agents used, including staurosporine (NSC755774) and gemcitabine (NSC613327), were obtained from the Developmental Therapeutics Program, NCI. FDA-approved anticancer drugs are available from the NCI at http://dtp.nci.nih.gov/branches/dscb/oncology_drugset_explanation.html. Drugs and investigational agents were >95% pure by proton nuclear magnetic resonance (NMR) and liquid chromatography/mass spectrometry (LC/MS). Stock solutions were prepared at 400x in DMSO, stored at -70 degrees C, and diluted in fresh medium prior to their use. The final concentration of DMSO in cell culture wells never exceeded 0.25% (v/v). The FDA-approved anticancer drug set is available from the Developmental Therapeutics Program at https://dtp.cancer.gov/organization/dscb/obtaining/available_plates.htm. All drugs and investigational agents were tested over a range starting from a high concentration at or near the clinical Cmax and decreasing in half-log increments. If the clinical Cmax for an agent had not been determined, the highest concentration tested was 10 microM.
Cell Lines. The patient-derived cancer cell (PDC) lines: 292921-168-R-J2-PDC, K24384-001-R-PDC, and 521955-158-R2-J5-PDC pancreatic carcinomas, 556581-035-R-J1 ovarian carcinoma, 324938-238-R-J1-PDC, 855422-203-R-J1-PDC and 883617-216-R-J1-PDC urothelial bladder carcinomas, 743489-274-T-PDC renal cell carcinoma, 138582-R-J1 Merkel cell tumor, K60290-347-R-J1 and K57222-313-R-J1-PDC glioblastomas, 653999-131-R-J2-PDC, LG0703-F948-PDC, and 349418-098-R-PDC non-small cell lung carcinomas, 885512-296-R-J2-PDC, 171881-019-R-J1-PDC breast carcinomas and 186277-243-T-J2-PDC and 233499-124-R-J2-PDC colon carcinomas were obtained from the NCI Patient-Derived Models Repository (PDMR, https://pdmr.cancer.gov). The established cell lines NCI/ADR-RES (RRID:CVCL_14520 and OVCAR-5 (RRID:CVCL_1628) ovarian carcinomas, 786-O (RRID:CVCL_1051) and A498 […] renal cell carcinoma, NCI-H211 (ATCC, cat. CRL-5824; RRID:CVCL_1529), NCI-H196 (ATCC, cat. CRL-5823, RRID:CVCL_1509), SW 1271 (ATCC, cat. CRL-2177, RRID:CVCL_1716) and NCI-H1876 (ATCC, cat. CRL-5902, RRID:CVCL_1503) small cell lung carcinomas, MDA-MB-231 (RRID:CVCL_0062) and MDA-MB-468 (RRID:CVCL_0419)breast carcinomas (10-12). Pooled donor human umbilical vein endothelial cells (HUVEC, Lonza, cat. CC-2519) and human mesenchymal stem cells (hMSC, Lonza, cat. PT-2501) were purchased from Lonza (Walkersville, MD).
Cell Culture. All cells were maintained in an incubator at 37 degrees C and 5% CO2 with 95% humidity. The PDC lines were cultured according to standard operating procedures established by the NCI PDMR (https://pdmr.cancer.gov). Briefly all PDCs were thawed and cultured in Matrigel-coated flasks prepared with a working solution of 1X Ham's F-12 nutrient mix, without supplementation (Invitrogen, Waltham, MA, cat. 11765054), 100 U/mL penicillin-streptomycin (Invitrogen, cat. 15140122), and 2.5% Matrigel (Corning Inc., Corning, NY, cat. 354248) for the first three passages. […]

Regarding `NC1CCC(NC2CC2c2ccccc2)CC1` (stereo unspecified), the viability, T/C is, setting by setting: (compound alone 1 µM) 97.1, 98.2, 100 (3×), 91.9, 116, 95.2, 79.4, 90.5, 98.9, 104 (3×), 96, 102, 87.8, 93.5, 85.6, 79.3, 105, 107, 101, 95.1, 99.4%; (compound alone 3.16 µM) 95.7, 93.7 (2×), 99.9, 101 (2×), 95, 98.4, 97, 105, 92.8, 75.5, 104 (2×), 90.7, 92.2, 92.4, 103, 82.8, 97.3, 99.6, 91.4, 90.3, 97.1, 96.2%; (compound alone 10 µM) 86.5, 97.9, 87, 81, 91.2, 81.5 (2×), 73.9, 76.8, 85.9, 87.3, 81.9, 86.8, 92 (2×), 84.7, 84.9, 91.7, 101, 93.4, 85.3, 76.7, 77.9%.

On to `NC1CC1c1ccc(-c2cccc(O)c2)cc1` (stereo unspecified), for which the viability, T/C was 109 (2×), 103, 105, 108 (2×), 101 (2×), 89.2, 86.7, 90.8, 107 (2×), 93.4, 102, 96.5, 112, 104, 99.2, 91.4, 95.4, 100, 96.6, 93.3, 98.2% (compound alone 0.316 µM); 96.5, 104 (2×), 89.1, 102 (2×), 96.4, 109, 94.8, 110, 65.5, 108, 87.8, 96.6, 96.3, 88.6, 90, 88.1, 106 (2×), 80.3, 99.5, 95.8, 88.9, 87.4% (compound alone 1 µM); 100, 90.6 (2×), 90.9, 91.1, 91, 90.1, 86.1, 78.8, 91.3, 85.9, 92 (2×), 86.9, 93.6, 86.7, 98.3, 85.5, 102, 74.9, 92.2, 77.7, 94.8, 90.3, 93.8% (compound alone 3.16 µM).
